The text below walks through data of PubChem BioAssay AID360 (National Center for Advancing Translational Sciences (NCATS), 2006).

Among all 48,000 compounds or so, about 550 (1.1%) were called active. Inconclusive results (about 4%) are left out. Cut-off read from the data, not from the text of the source: active = potency below about 15 µM; inconclusive = mostly about 16 µM to 33 µM; inactive = weaker than that. The list shows a part of the results. A value given as a limit tells only on which side of the number the result lay.
Potency is the fitted concentration of half-maximal effect.

In this experiment the target is Lysosomal acid glucosylceramidase (Homo sapiens) (UniProt P04062). The experiment can be described thus: Glucocerebrosidase.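 Note: the screen sought inhibitors.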 The conditions noted are these: purified enzyme, resorufin glucoside fluorescence (screen aimed at inhibitors), 20 min. Summed up: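 Compounds titrated against 0.2 nM normal enzyme, 30 uM resorufin beta-D-glucopyranoside substrate, citrate/phosphate buffer with taurocholate and tween-20, pH 5.9. Reaction ran 20 min at room temperature; fluorescence (Ex 548/Em 600) gave AC50.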
UniProt P04062, sequence (P04062 whole entry, looked up): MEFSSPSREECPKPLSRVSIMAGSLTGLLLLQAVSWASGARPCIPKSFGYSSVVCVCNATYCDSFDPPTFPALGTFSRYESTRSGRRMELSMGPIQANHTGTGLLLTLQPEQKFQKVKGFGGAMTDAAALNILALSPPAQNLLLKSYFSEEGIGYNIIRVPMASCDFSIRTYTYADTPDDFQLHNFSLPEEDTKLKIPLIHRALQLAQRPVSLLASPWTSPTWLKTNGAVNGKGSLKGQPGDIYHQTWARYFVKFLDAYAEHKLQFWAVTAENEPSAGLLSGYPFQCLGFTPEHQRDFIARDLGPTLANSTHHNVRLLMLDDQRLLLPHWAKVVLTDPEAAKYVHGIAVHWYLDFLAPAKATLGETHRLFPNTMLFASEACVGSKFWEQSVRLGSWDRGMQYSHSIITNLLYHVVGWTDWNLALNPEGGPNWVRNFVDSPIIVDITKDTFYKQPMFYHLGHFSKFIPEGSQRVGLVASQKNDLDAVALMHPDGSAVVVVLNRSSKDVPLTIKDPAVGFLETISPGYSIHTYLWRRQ
With `CC(=O)N1CCc2cc(S(=O)(=O)NCCC(=O)Nc3cccc(C)c3C)ccc21`, the Potency is inactive: > 76.9 µM.

For the compound `CCOc1cc(C(=O)NCc2nnc(SCC(=O)OC)n2C)cc(OCC)c1OCC`, the Potency is inactive: > 76.9 µM.

As to `Clc1ccc(SCCn2cncn2)cc1`, the Potency was inactive: > 76.9 µM.

Turning to `COc1ccc(-c2nc(C#N)c(NCCc3ccccc3)o2)cc1`, the Potency was inactive: > 76.9 µM.

With `CC(c1ccccc1)C1CC(=O)N(c2ccc(C(=O)O)cc2)C1=O` (stereo unspecified), the Potency is inactive: > 76.9 µM.

For `COc1ccccc1NC(=O)CSc1nc(N)cc(N)n1`, the Potency was inactive: > 76.9 µM.

As for `COc1ccc(OC)c(N)c1`, the Potency is inactive: > 76.9 µM.

As for `Cc1ccc(-n2ncc3c(=O)n(CC(=O)N4CCCc5ccccc54)cnc32)cc1C`, the Potency was inactive: > 76.9 µM.

Regarding `O=C(O)CCNS(=O)(=O)c1ccccc1`, the Potency was inactive: > 76.9 µM.

`O=C(NCCN1C(=O)CSC1=O)c1ccccc1`: the Potency is inactive: > 76.9 µM.

As to `N#Cc1nc(COc2ccc(Cl)cc2Cl)oc1N1CCOCC1`, the Potency is inactive: > 76.9 µM.

As for `CC(=O)CC(C)=NCCN=C(C)CC(C)=O`, the Potency was inactive: > 76.9 µM.

As to `Cc1cc(O)c(C2(C(F)(F)F)NCCNC2=O)cc1C` (stereo unspecified), the Potency was inactive: > 76.9 µM.

With `O=C1CC(NCc2ccco2)C(=O)N1CCc1ccccc1` (stereo unspecified), the Potency was inactive: > 76.9 µM.

As to `CN=CC1=C(O)CC(C)(C)CC1=O`, the Potency was inactive: > 76.9 µM.

As to `CCN1CCN(C(=O)c2sc3nc(C)nc(N4CCC(C)CC4)c3c2C)CC1`, the Potency entry was “inactive”.

As to `O=C(O)CCCNc1cc(N2CCC3(CC2)OCCO3)c2noc3c2c1C(=O)c1ccccc1-3`, the Potency is active: 11.8 µM.

Take `Cc1cc(NC(=O)Cn2c(=O)n(Cc3ccccc3)c(=O)c3ccccc32)no1`: the Potency was inactive: > 76.9 µM.

With `Cc1ccc2c(c1)CCCN2C(=O)c1ccc2c(c1)OCO2`, the Potency is inactive: > 76.9 µM.

As for `CCn1c(=O)cc(SCC(=O)NCc2ccco2)c2ccccc21`, the Potency is inactive: > 76.9 µM.

Take `Cc1cc(C)cc(N(CC(=O)NC2CCCCC2)C(=O)CCC(=O)Nc2cc(C)ccn2)c1`: the Potency was inactive: > 76.9 µM.

Regarding `CC(=O)c1cc2c(cc1NC(=O)CN1CCCCC1C)OCO2` (stereo unspecified), the Potency is inactive: > 76.9 µM.

With `COc1ccc(-c2nc(=S)c3c(n2CCN2CCOCC2)CC(C)(C)OC3)cc1`, the Potency is inactive: > 76.9 µM.

Regarding `Cn1c(SCc2ccc(F)cc2)nnc1-c1cccs1`, the Potency was inactive: > 76.9 µM.

`COC(=O)c1ccccc1NC(=O)C1CC(c2ccccc2O)=NO1` (stereo unspecified): the Potency is inactive: > 76.9 µM.

Turning to `COC(=O)c1ccc(S(=O)(=O)N2CCCC2)o1`, the Potency was inactive: > 76.9 µM.

Consider `CCOC(=O)CSc1nnc(CNC(=O)c2cccs2)n1Cc1ccccc1`, for which the Potency is inactive: > 76.9 µM.

`CCCn1c(=O)c(C(=O)Nc2ccccc2C(=O)OCC)c(O)c2ccccc21`: the Potency entry is “inactive”.

In the case of `COc1ccc(CCNC(=O)CSc2nc(N)c3c(C)c(C)oc3n2)cc1OC`, the Potency is inactive: > 76.9 µM.

In the case of `CCn1c(SCC(=O)Nc2ccccc2N2CCOCC2)nnc1-c1ccccc1`, the Potency is inactive: > 76.9 µM.

In the case of `O=C(O)c1cccn2c(=O)c3ccccc3nc12`, the Potency was inactive: > 76.9 µM.

Consider `O=C(Cn1c(=O)n2ncnc2c2c3c(sc21)CCCC3)c1ccccc1`, for which the Potency was inactive: > 76.9 µM.

Turning to `COc1cc(S(=O)(=O)N2CCN(c3ccccc3F)CC2)c(OC)cc1Cl`, the Potency is inactive: > 76.9 µM.

As for `O=C(NC1CC1)c1c[nH]c2ccc(S(=O)(=O)Nc3cccc(C(F)(F)F)c3)cc2c1=O`, the Potency is inactive: > 76.9 µM.

Take `COC(=O)c1ccccc1NC(=O)CNc1cc(Cl)ccc1N1CCOCC1`: the Potency was inactive: > 76.9 µM.

In the case of `Cn1c(=O)oc2cc(S(=O)(=O)NCCC(=O)Nc3ccc4c(c3)OCCO4)ccc21`, the Potency is inactive: > 76.9 µM.

In the case of `Cc1ccc(C2NC(=O)c3c(sc4c3CCN(C)C4)N2)o1` (stereo unspecified), the Potency was inactive: > 76.9 µM.

In the case of `CCOc1ccc(C(=O)NCC(C)CN(C)C)cc1OCC` (stereo unspecified), the Potency is inactive: > 76.9 µM.

`COCCNC(=O)c1cc2sc3ccccc3c2s1`: the Potency was inactive: > 76.9 µM.

As to `COc1ccc(CNC(=O)C2CC=CCC2C(=O)O)cc1OC` (stereo unspecified), the Potency was inactive: > 76.9 µM.

In the case of `CC12CCC(C(=O)N3CCN(c4ncccn4)CC3)(c3nc4ccccc4nc31)C2(C)C` (stereo unspecified), the Potency is inactive: > 76.9 µM.

With `CCC(C)c1ccc(O)c(NC(=O)c2cccnc2)c1` (stereo unspecified), the Potency is inactive: > 76.9 µM.

With `O=C(OC(C(=O)NC1CCCC1)c1ccc(F)cc1)c1ccno1` (stereo unspecified), the Potency was inactive: > 76.9 µM.

Turning to `O=C(CCNS(=O)(=O)c1ccc2c(c1)CCC(=O)N2)NCc1cccnc1`, the Potency is inactive: > 76.9 µM.

On to `Cc1cc(Cl)ccc1OCC(=O)N1CCCCC1`, for which the Potency is inactive: > 76.9 µM.

For `COc1ccc(OC)c(-c2cc(C(=O)Nc3c(C)nn(Cc4ccccc4)c3C)no2)c1`, the Potency was inactive: > 76.9 µM.

Consider `CCCNC(=O)CC(NS(=O)(=O)c1ccc(Cl)cc1)c1ccco1` (stereo unspecified), for which the Potency was inactive: > 76.9 µM.

As to `Clc1ccc(Cn2ncc3c(NCc4ccco4)ncnc32)c(Cl)c1`, the Potency result was “inactive”.

Take `COc1cc2[nH]c3c(N4CCN(c5ccc(Cl)cc5)CC4)ncnc3c2cc1OC`: the Potency is inactive: > 76.9 µM.

For `O=C(CN1C(=O)C2CC=CCC2C1=O)Nc1nc2ccccc2[nH]1` (stereo unspecified), the Potency is inactive: > 76.9 µM.

As for `CCN(CC)CCCNC(=O)c1cn(CCOC)c(=O)c2c1c1ccccc1n2C`, the Potency is inactive: > 76.9 µM.

Regarding `O=S(=O)(Cc1ccccc1)NCc1ccccn1`, the Potency was inactive: > 76.9 µM.

In the case of `CCn1nnc(-c2ccccc2NS(=O)(=O)c2ccc(S(=O)(=O)N3CCCCCC3)cc2)n1`, the Potency was inactive: > 76.9 µM.

Turning to `COc1ccc(COC(=O)c2nc3nc(C)cc(C)n3n2)cc1F`, the Potency is inactive: > 76.9 µM.

Turning to `O=c1cc(CSc2ccccn2)nc(N2CCN(c3ccccc3)CC2)[nH]1`, the Potency was inactive: > 76.9 µM.

Turning to `CC1=C(C)CC(C(=O)Nc2cccc(Cl)c2)C(C(=O)O)C1` (stereo unspecified), the Potency is inactive: > 76.9 µM.

As for `CCS(=O)(=O)NCc1cn2c(C)csc2n1`, the Potency was inactive: > 76.9 µM.

For `Nc1c(Sc2ccccc2)c(=O)[nH]c(=O)n1Cc1ccccc1`, the Potency was inactive: > 76.9 µM.

With `O=C(c1ccccc1Cl)N1CCN(c2ccccn2)CC1`, the Potency was inactive: > 76.9 µM.

With `CCCc1[nH]nc2c1C(Cc1ccccc1)C(C#N)=C(N)O2` (stereo unspecified), the Potency was inactive: > 76.9 µM.

In the case of `COc1cc(CC(=O)Nc2ccc(S(=O)(=O)Nc3ncccn3)cc2)cc(OC)c1OC`, the Potency is inactive: > 76.9 µM.

For `FC(F)(F)c1cc(-c2cccs2)nc(N2CCOCC2)n1`, the Potency is inactive: > 76.9 µM.

As for `Cc1ccc(N(C(C)C(=O)O)S(=O)(=O)c2c(C)n[nH]c2C)cc1` (stereo unspecified), the Potency was inactive: > 76.9 µM.

In the case of `O=C(Cn1nnc(-c2ccccc2)n1)N1CCN(S(=O)(=O)c2ccc(Cl)cc2)CC1`, the Potency was inactive: > 76.9 µM.

For `C/C(=C(\C#N)C(=O)NCCCN1CCOCC1)N(C)C`, the Potency was inactive: > 76.9 µM.

On to `CS(=O)(=O)N1CCN(C(=O)c2ccncc2)CC1`, for which the Potency was inactive: > 76.9 µM.

Take `Cn1nnnc1SCC(=O)NC(=O)NCc1ccccc1`: the Potency is inactive: > 76.9 µM.

On to `CC(=O)c1cccc(NC2c3ncccc3C(=O)N2Cc2ccco2)c1` (stereo unspecified), for which the Potency was inactive: > 76.9 µM.

Consider `COc1ccc(CNC(=O)c2cccc(N3CCCC3=O)c2)cc1`, for which the Potency was inactive: > 76.9 µM.

`CC(=O)Nc1cc(C(F)(F)F)ccc1OCC1CCCO1` (stereo unspecified): the Potency was inactive: > 76.9 µM.

On to `Cn1nnnc1SCC(=O)N1CCN(c2ccc(Cl)cc2)CC1`, for which the Potency is inactive: > 76.9 µM.

For `COC(=O)C1=CNC=C(C(=O)OC)C1c1cccc(OC)c1`, the Potency is inactive: > 76.9 µM.

With `COc1ccccc1NC(=O)N(Cc1ccco1)Cc1cc2cc(C)cc(C)c2[nH]c1=O`, the Potency is inactive: > 76.9 µM.

As for `O=C(Nc1c(C(=O)N2CCOCC2)cnn1-c1ccccc1Cl)c1ccco1`, the Potency is inactive: > 76.9 µM.

For the compound `CCN(CC)S(=O)(=O)c1ccc2[nH]c(=O)[nH]c2c1`, the Potency is inactive: > 76.9 µM.

Take `CCOC(=O)c1ccc(NC(=O)C(CC)(CC)C(=O)OCC)cc1`: the Potency is inactive: > 76.9 µM.

For `C=CCOc1cccc(C2/C(=C(/O)c3ccc(C)cc3)C(=O)C(=O)N2CCN2CCOCC2)c1` (stereo unspecified), the Potency entry was “inactive”.

Turning to `COc1cccc(C2/C(=C(\O)c3c(C)nc4c(C)cccn34)C(=O)C(=O)N2CCCN(C)C)c1` (stereo unspecified), the Potency is inactive: > 76.9 µM.

Regarding `CCOC(=O)N1CCN(C(=O)CCc2c(C)nc3nc(C)nn3c2C)CC1`, the Potency is inactive: > 76.9 µM.

For the compound `Cc1ccccc1OCCn1c(=O)oc2ccccc21`, the Potency was inactive: > 76.9 µM.

For the compound `CN(C(=O)COC(=O)C1c2ccccc2Oc2ccccc21)C1CCS(=O)(=O)C1` (stereo unspecified), the Potency is inactive: > 76.9 µM.

Turning to `COc1ccc(Br)cc1C(=O)Nc1nnn(C)n1`, the Potency is inactive: > 76.9 µM.

For `COc1ccc(CCn2nnnc2C(C(C)C)N2CCN(c3ncccn3)CC2)cc1OC` (stereo unspecified), the Potency was inactive: > 76.9 µM.

Regarding `CS(=O)(=O)N(CC(=O)Nc1ccc2c(c1)OCCO2)Cc1ccc(Cl)cc1`, the Potency is inactive: > 76.9 µM.

Consider `COc1ccccc1Oc1ccc(S(=O)(=O)NCc2ccccn2)cc1`, for which the Potency is inactive: > 76.9 µM.

On to `CC1CCC(N2CCN(c3ncccn3)CC2)CC1` (stereo unspecified), for which the Potency is inactive: > 76.9 µM.

On to `COc1ccc(C2C(C(=O)Nc3cccc(C)n3)c3ccccc3C(=O)N2C)cc1` (stereo unspecified), for which the Potency was inactive: > 76.9 µM.

With `CCOC(=O)C1=C(C)NC(C)=C(C(=O)OCC)C1c1ccccn1`, the Potency was inactive: > 76.9 µM.

`COC(=O)C1(C)NC(c2ccco2)C2C(=O)N(c3ccc(C)cc3)C(=O)C21` (stereo unspecified): the Potency is inactive: > 76.9 µM.

In the case of `COc1cc2c(=O)n(-c3ccc(C)cc3)c(=O)n(CC(=O)c3ccc4c(c3)OCO4)c2cc1OC`, the Potency is inactive: > 76.9 µM.

Consider `Nc1ncnc(Nc2ccccc2C(F)(F)F)n1`, for which the Potency is inactive: > 76.9 µM.
